Laboratory results taken from the supplement of paper PMC3334620.
Whole data set: some 33,000 sequences, median “E-score (-0.5 to 0.5)” near -0.032, cut for the highest 2% near 0.36. The list shows a part of the results.

What follows are sequences tested against T1, Sko1 (UniProt Q02100) (assay: PBM E-score (8-mer binding enrichment) (E-score (-0.5 to 0.5)); higher = stronger / more preferred TF binding; most listed sequences are background and not binding sites). Settings: protein concentration: 200 nM; construct: GST-full length.
T1 sequence: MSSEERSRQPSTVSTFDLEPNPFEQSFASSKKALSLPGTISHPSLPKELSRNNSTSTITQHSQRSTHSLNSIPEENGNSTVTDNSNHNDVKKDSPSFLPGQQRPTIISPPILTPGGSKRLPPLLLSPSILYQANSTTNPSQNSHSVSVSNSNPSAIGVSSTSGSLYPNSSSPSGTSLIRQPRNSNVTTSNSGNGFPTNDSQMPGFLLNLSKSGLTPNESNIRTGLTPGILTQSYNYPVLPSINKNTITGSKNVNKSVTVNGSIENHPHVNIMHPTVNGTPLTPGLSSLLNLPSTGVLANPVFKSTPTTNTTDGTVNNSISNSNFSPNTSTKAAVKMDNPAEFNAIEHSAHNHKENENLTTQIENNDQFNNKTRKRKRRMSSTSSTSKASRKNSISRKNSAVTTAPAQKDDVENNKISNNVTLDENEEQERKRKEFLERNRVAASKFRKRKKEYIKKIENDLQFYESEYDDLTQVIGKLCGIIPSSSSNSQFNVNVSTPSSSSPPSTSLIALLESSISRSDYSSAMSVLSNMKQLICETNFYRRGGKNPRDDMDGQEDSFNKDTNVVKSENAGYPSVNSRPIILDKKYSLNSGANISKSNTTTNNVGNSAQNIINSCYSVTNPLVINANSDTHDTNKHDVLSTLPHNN
Outline: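 Universal all-10-mer Agilent arrays, double-stranded by primer extension on fresh or once-stripped slides, were probed with about 100-200 nM GST-tagged yeast transcription factors made by PURExpress. Fluorescent anti-GST detected bound protein, and masliner normalised the scans. E-scores from the Universal PBM Analysis Suite were given to each ungapped eight-base word pooled with its reverse complement.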

Compared with CCCTGAAC, CTCTGAGA is lower in “PBM E-score” value: 0.0699 for the first, -0.18 for the second.

Compared with ACAATCAT, ATGTCTTG is lower in “PBM E-score” value: 0.154 for the first, -0.0188 for the second.

Going from AAGCGAAG to AGTGAATG, the “PBM E-score” value rises from -0.0407 to 0.148.

Going from TACGATCA to GCGCAAGA, the “PBM E-score” value falls from 0.226 to 0.151.

Going from ATAGCGCA to CGTGTATA, the “PBM E-score” value rises from 0.0138 to 0.264.

Going from GACATAGA to TACCGCCA, the “PBM E-score” value falls from 0.154 to -0.0605.

Compared with CTCAAAAG, CGTATGCC is higher in “PBM E-score” value: -0.0771 for the first, 0.165 for the second.

First: GCGCCAGA
Second: TCCATTAA
The “PBM E-score” value of the first is lower: -0.155 for the first, 0.00567 for the second.

Compared with GTATCCAC, TTAGCAAA is higher in “PBM E-score” value: 0.0437 for the first, 0.225 for the second.

Going from AAAGTGCG to ATTCATAG, the “PBM E-score” value falls from 0.161 to 0.0985.

Going from CAATTGGC to ACCGAACA, the “PBM E-score” value falls from 0.0901 to 0.00244.

First: CCGGAGCA
Second: GCTTGTAC
The “PBM E-score” value of the first is lower: -0.283 for the first, 0.0364 for the second.

First: AGCTCTGC
Second: TGTACAAA
The “PBM E-score” value of the first is lower: -0.369 for the first, 0.124 for the second.

First: AGAGTTAG
Second: CTGTATAA
The “PBM E-score” value of the first is lower: -0.0289 for the first, 0.13 for the second.

Going from AGCTTGCG to AATGTAGA, the “PBM E-score” value falls from 0.145 to 0.119.

First: AAATTAAT
Second: TGACGCCA
The “PBM E-score” value of the first is lower: 0.229 for the first, 0.453 for the second.

Compared with CCTACACC, GCCTTAGA is lower in “PBM E-score” value: -0.107 for the first, -0.149 for the second.

Compared with CATATGGA, CGCCTATA is lower in “PBM E-score” value: 0.0284 for the first, -0.0472 for the second.

Compared with GAGCCGAC, CTGAGAAG is higher in “PBM E-score” value: -0.226 for the first, -0.202 for the second.

Going from ATTGCCCA to ACTAACCC, the “PBM E-score” value rises from -0.0532 to -0.037.

Going from GACGGAGA to AGTCATCG, the “PBM E-score” value rises from -0.0785 to 0.103.

Compared with TCGTGTAA, AGATTCCT is lower in “PBM E-score” value: 0.116 for the first, -0.285 for the second.

Going from GCCTATAC to GCATCTGA, the “PBM E-score” value falls from -0.102 to -0.13.

Compared with AAACGATT, CAGCGAGG is lower in “PBM E-score” value: 0.119 for the first, -0.233 for the second.

Compared with CAAGTAAG, ACGAACCA is higher in “PBM E-score” value: -0.0448 for the first, 0.179 for the second.

Going from CCATTTGC to CGGCAGAA, the “PBM E-score” value falls from -0.103 to -0.264.

First: GGTCACGA
Second: TGGAACCA
The “PBM E-score” value of the first is higher: -0.0631 for the first, -0.151 for the second.

First: CAAGGTGA
Second: ATAACCGA
The “PBM E-score” value of the first is higher: 0.0696 for the first, -0.132 for the second.

Going from GCAGTGCC to ATATGTCA, the “PBM E-score” value rises from -0.263 to 0.339.

Going from ATGCGTAC to TCACAAGA, the “PBM E-score” value falls from 0.291 to -0.00762.

Going from CGCCGAAC to GTTTGCGA, the “PBM E-score” value rises from -0.027 to 0.166.

First: CGCAGCCA
Second: ATAGCCAT
The “PBM E-score” value of the first is lower: -0.106 for the first, 0.0219 for the second.

Going from AGTTGGGA to GAGTGAGA, the “PBM E-score” value rises from -0.165 to -0.164.

First: ATAGCTCG
Second: CTACCAGA
The “PBM E-score” value of the first is higher: 0.12 for the first, -0.0506 for the second.

Going from ACGACACA to ATTCGACC, the “PBM E-score” value falls from 0.205 to -0.233.

Compared with CGCGTTCC, TGTAATAA is higher in “PBM E-score” value: -0.0612 for the first, 0.28 for the second.

Compared with CTGATGAA, AACCTGTC is lower in “PBM E-score” value: 0.175 for the first, -0.164 for the second.

Compared with AATCATCA, ACAGCAGG is lower in “PBM E-score” value: 0.201 for the first, -0.153 for the second.

First: CATGGAAA
Second: GAGTGGGA
The “PBM E-score” value of the first is higher: 0.163 for the first, -0.192 for the second.

Going from CCCATTAA to CCACGCGG, the “PBM E-score” value rises from -0.186 to -0.124.

Compared with GAAGCATA, GCTATTTA is higher in “PBM E-score” value: -0.0185 for the first, 0.0704 for the second.

Going from ATGACGGA to ACGCACTG, the “PBM E-score” value falls from 0.419 to 0.177.

Going from AAAAGACA to CTGTTTAC, the “PBM E-score” value rises from 0.183 to 0.26.

Compared with ACTCTGCC, ACCGAGAA is higher in “PBM E-score” value: -0.101 for the first, -0.00331 for the second.

Going from CTCCTAAC to AATTCATA, the “PBM E-score” value rises from -0.0207 to 0.161.

First: CCAGTTAA
Second: CCATAGAC
The “PBM E-score” value of the first is higher: 0.101 for the first, -0.0864 for the second.

First: GTTATCCA
Second: AACGTAGG
The “PBM E-score” value of the first is lower: -0.0027 for the first, 0.336 for the second.

Compared with GACCGTCC, AACACGTA is higher in “PBM E-score” value: -0.304 for the first, 0.459 for the second.

First: CAAAGCTC
Second: CCAAACAG
The “PBM E-score” value of the first is higher: -0.218 for the first, -0.258 for the second.

Compared with GAGTAGAC, GAGCGCTA is lower in “PBM E-score” value: 0.00979 for the first, -0.0474 for the second.

Going from GCCAGGAA to AGTGACAT, the “PBM E-score” value rises from 0.0363 to 0.361.

First: GACGCAAA
Second: GCTGACTA
The “PBM E-score” value of the first is higher: 0.347 for the first, -0.121 for the second.

Compared with ACTATGCA, TAGCTTAA is higher in “PBM E-score” value: -0.00194 for the first, 0.135 for the second.

Compared with TAATATAA, GAAGCGCC is lower in “PBM E-score” value: 0.253 for the first, -0.101 for the second.

Compared with CTGATCGC, ATGCGGTC is higher in “PBM E-score” value: -0.0786 for the first, -0.027 for the second.

Going from AATGAGTG to ATCACTAA, the “PBM E-score” value rises from 0.124 to 0.137.

Going from CCCGCCCC to CCATGCGA, the “PBM E-score” value falls from 0.0628 to -0.0229.

Compared with AAGAATCC, CCTGCTAG is lower in “PBM E-score” value: -0.148 for the first, -0.334 for the second.

First: AAGGATGC
Second: ACATCTCG
The “PBM E-score” value of the first is higher: 0.0452 for the first, -0.0543 for the second.

Compared with AGGCATTC, GAGTACCA is higher in “PBM E-score” value: -0.267 for the first, 0.0559 for the second.

Compared with AAACACCT, TATCGTGA is higher in “PBM E-score” value: 0.139 for the first, 0.168 for the second.

Compared with AGGTGTAC, AGTTCCAT is higher in “PBM E-score” value: 0.0338 for the first, 0.0951 for the second.

Compared with AAGATGTG, GGACTACC is lower in “PBM E-score” value: -0.0256 for the first, -0.16 for the second.

Going from ACGCCCAC to GGCGTCTA, the “PBM E-score” value falls from 0.0779 to -0.0406.

First: TTAGACAA
Second: GGTTGTGA
The “PBM E-score” value of the first is higher: 0.166 for the first, 0.153 for the second.

First: GCGCTGAA
Second: ATGACCTG
The “PBM E-score” value of the first is lower: -0.216 for the first, 0.0736 for the second.

First: AAGAAAAA
Second: TCCAAAGA
The “PBM E-score” value of the first is higher: 0.123 for the first, 0.00453 for the second.

Compared with CTACTGAG, CCTCAATA is higher in “PBM E-score” value: -0.124 for the first, -0.0994 for the second.

Going from ATTACTGA to ACGCACCG, the “PBM E-score” value rises from 0.241 to 0.25.

Going from CGTTGCGA to GATGGATA, the “PBM E-score” value falls from 0.0733 to -0.138.

First: TAAGGCGA
Second: ACCTTACT
The “PBM E-score” value of the first is lower: -0.0493 for the first, 0.136 for the second.

Going from GTACGTAA to AACAGAGT, the “PBM E-score” value falls from 0.487 to 0.18.

First: AATGCGAA
Second: CCCAAGAA
The “PBM E-score” value of the first is higher: 0.0684 for the first, -0.146 for the second.

Compared with ATAACTCG, GTTATAAC is higher in “PBM E-score” value: 0.0475 for the first, 0.154 for the second.

Compared with AATCCAAT, GCCATAAA is lower in “PBM E-score” value: 0.0698 for the first, 0.0435 for the second.

Compared with GGTAAACC, GTCACGCA is higher in “PBM E-score” value: -0.194 for the first, 0.25 for the second.

First: ACCACCGG
Second: CAGCAAGC
The “PBM E-score” value of the first is higher: -0.114 for the first, -0.223 for the second.

Compared with ACTCACTC, CACCACTC is lower in “PBM E-score” value: 0.0504 for the first, -0.178 for the second.

Compared with GAGCCCCA, AATTGAAC is higher in “PBM E-score” value: -0.278 for the first, 0.0583 for the second.

First: AGCGGCAA
Second: ACTATAGA
The “PBM E-score” value of the first is lower: -0.15 for the first, -0.0143 for the second.

Compared with ACCCCTGG, CCATACAG is higher in “PBM E-score” value: -0.301 for the first, -0.0745 for the second.

Compared with AGCGCGCA, AATCCCTC is higher in “PBM E-score” value: 0.0269 for the first, 0.0478 for the second.

Going from CGAGCTTC to CCATACTC, the “PBM E-score” value falls from 0.0178 to -0.336.

Going from CATTTGCA to AAGTTGAA, the “PBM E-score” value falls from 0.111 to -0.0103.

Compared with AGAACCTA, ATGTCTCG is lower in “PBM E-score” value: 0.0741 for the first, 0.0151 for the second.

Compared with GCCTATGA, ACCATCTA is lower in “PBM E-score” value: -0.0512 for the first, -0.134 for the second.
